Measurements published in publication PMC12136788.
Some of the results follow.

T1: UNK ZnF1-6 (called full-length) (human, UniProt Q9C0B0 30-357)
T1 sequence: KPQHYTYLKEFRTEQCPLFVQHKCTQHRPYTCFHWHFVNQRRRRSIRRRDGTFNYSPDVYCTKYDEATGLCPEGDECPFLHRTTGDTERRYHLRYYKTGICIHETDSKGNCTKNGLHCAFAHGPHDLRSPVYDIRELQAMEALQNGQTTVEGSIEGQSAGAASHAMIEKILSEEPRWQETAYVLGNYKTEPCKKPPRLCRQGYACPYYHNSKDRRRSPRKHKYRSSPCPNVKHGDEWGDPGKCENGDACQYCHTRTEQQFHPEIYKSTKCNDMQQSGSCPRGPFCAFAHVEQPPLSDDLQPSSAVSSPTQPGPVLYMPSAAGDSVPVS

B1: chrX:30828625:30828726:-|3pUTR|ENSG00000157625|msi1|total|mutant (ssRNA)
RNA: GGGAGUUCUACAGUCCGACGAUCUUCUUGUUUCUUGUAAGAGGUUUCUUUAAAAUGACCCGUUUGAUGUAUCUGGUAACAUACCGGCCUGACUAUACAUUUUACAUUAUUUCGCUAUUUUGUAAACUGGGAUUUCCGAAAGCACAACAGAGGAUUGAGCAUCA
B2: ENSG00000070961:be:win_5851|3pUTR|ENSG00000070961|bound_else_gene|NA|bound_elsewhere_windowed (ssRNA)
RNA: GGGAGUUCUACAGUCCGACGAUCAUGAAUGUAAUUACCAAAAGAUUUAGAAGUGCAUGUGCUUUGGAGGAUUUGUAUUGAGCUUUUACAGUAUUCAUUUUUCAACUCAAGGCAAUGGCUUUCUACACCAACUCUAAUCCAUAACAACAGAGGAUUGAGCAUCA
B3: chr12:89642165:89642281:-|CDS|ENSG00000070961|unk|total|mutant (ssRNA)
RNA: GGGAGUUCUACAGUCCGACGAUCGCCAAAAACCUUUCUUCAAUCCGUAUGGGAAGCAUUACAAGAUGUCACUUUAAUUAUAUCCGAAAUUGCAGCCACCGUAUCAUUGGGCCUUUCUUUUUAUCAGCCUCCAGAAGGGGAUAACAACAGAGGAUUGAGCAUCA
B4: ENSG00000107863:be:win_4701|CDS|ENSG00000107863|bound_else_gene|NA|bound_elsewhere_windowed (ssRNA)
RNA: GGGAGUUCUACAGUCCGACGAUCCAGUCCAGAAACGAAACAUAGCGAGUUUUUGGCCAACGUCAGCACCAUCACCUCAGAUUAUUCCACCACAUCGUCUGCUACAUACUUGACUAGCCUGGACUCCAGUCGACUGAGCCCUGACAACAGAGGAUUGAGCAUCA
B5: chrX:12823584:12823685:+|3pUTR|ENSG00000101911|unk|total|mutant (ssRNA)
RNA: GGGAGUUCUACAGUCCGACGAUCUGACUUAAAGGUAAUCAUUUCAGCUAAGAUUAAAUUUAAAGCCUAAGAAUGUACCGAGCCCGUUUUAAAAUAAUGAUCUCAGAUUUUUAAAAAGGAUACCGGAACCUGCAUUGUCAUUCUCAACAGAGGAUUGAGCAUCA
B6: chr2:148946928:148947042:+|CDS|ENSG00000168280|unk|total|mutant (ssRNA)
RNA: GGGAGUUCUACAGUCCGACGAUCGAAUGAACACAGCUCCCGAAGUCACAGUAUCUUCCUGAUAAAUAUUAAACAAGAGAAUGCCGAGACUGAAAAAAAACUCAGUGGGAAACUUUAUUUGGUUGAUUUGGCUGGGAGCGAAAACAACAGAGGAUUGAGCAUCA
B7: ENSG00000136888:stop:overlap|stop_codon|ENSG00000136888|stop_codon|NA|stop_codon (ssRNA)
RNA: GGGAGUUCUACAGUCCGACGAUCUCUUGGCUUUUGUCUGUGACAUUCGGCCAGAAAUCCAUGAAAACUACCGCAUAAAUGGAUAGAAGAGAGAAGCACCUGUGCUGUGGAGUGGCAUUUUAGAUGCCCUCACGAAUAUGAAGCCAACAGAGGAUUGAGCAUCA
B8: chr18:67510860:67510961:-|3pUTR|ENSG00000171451|msi1|FALSE|bound_elsewhere (ssRNA)
RNA: GGGAGUUCUACAGUCCGACGAUCACUAAUAAUACUUACCAACCCACUUUGUGGAUAUGAAUCAGAAGAGUUUGUUUAUUCUUUAGUGUGUGUGUGUGUGUGCACGCGUGUAUGUGUUCAGUGUUGUUUGCACAGAGAGAUUGUCAACAGAGGAUUGAGCAUCA
B9: ENSG00000117139:stop:overlap|stop_codon|ENSG00000117139|stop_codon|NA|stop_codon (ssRNA)
RNA: GGGAGUUCUACAGUCCGACGAUCAUGAAUACUGUUUGUUUUUUGUUUUUCCUUCCAGAUUAGACUUUGGGGGAUUUCUUAUAUAGAAUAAAGGGCUUGAUUAUAUGUAGCCUCUAUCCUGGAGAAAGGUUAUGUAAUUUGGACCAACAGAGGAUUGAGCAUCA
B10: chr1:152032676:152032810:-|CDS|ENSG00000163191|unk|FALSE|unique (ssRNA)
RNA: GGGAGUUCUACAGUCCGACGAUCGGACCCUGGUGUCCUUGACCGCAUGAUGAAGAAACUGGACACCAACAGUGAUGGUCAGCUAGAUUUCUCAGAAUUUCUUAAUCUGAUUGGUGGCCUAGCUAUGGCUUGCCAUGACUCCUUCAACAGAGGAUUGAGCAUCA
B11: chr8:70573615:70573716:-|3pUTR|ENSG00000067167|msi1|FALSE|unique (ssRNA)
RNA: GGGAGUUCUACAGUCCGACGAUCCAGUGUUCACAUCUUGUUCCCCAUUUCUCACUUGUGUCACCAGCUGUUUGUGCCAUUUUUAGUGUAAAAGUUGCAGACCUAUUAGAUCUGCAGUUUAAGUUGCCAUGCUGCUAGGAAAUUCAACAGAGGAUUGAGCAUCA
B12: chr12:110350735:110350839:+|3pUTR|ENSG00000174437|unk|FALSE|unique (ssRNA)
RNA: GGGAGUUCUACAGUCCGACGAUCUACAGUUUGCUUAUUUAUAAAUUCAUUAAAAACACUACAGGUGUUGAAUGGUUAAAAUGUAGGCCUCCAGUUCAUUUUCAGUUAUUUUCUGAGUGUGCAGACAGCUAUUUCGCACUGUAUCAACAGAGGAUUGAGCAUCA
B13: chr22:38864602:38864703:-|3pUTR|ENSG00000183741|msi1|total|mutant (ssRNA)
RNA: GGGAGUUCUACAGUCCGACGAUCGCUGUGCUGCCAUGGGCCCCUCCCUCAGAAGCACGUUGGCAGGAGGCCGAUCAGAACCCCCGCGCCUUUGGUCCUAAGAAUGGGAGGCUGCCUUCCUUCCCAAUCUCCCUGCCAGGGCCCCAACAGAGGAUUGAGCAUCA
B14: chr4:103158754:103158855:-|CDS|ENSG00000138778|msi1|total|mutant (ssRNA)
RNA: GGGAGUUCUACAGUCCGACGAUCGGAGAAAACACGUGAGGUUCAAGAAAGACUAAAUGAGAUGGAACAGCUGAAGGAACAAUCCGAAAACCGAGAUUCUACGCUGCAAACUGCCGAAAGGGAGAAAACACUGAUUACUGAGAACAACAGAGGAUUGAGCAUCA
B15: chr5:119149357:119149458:+|CDS|ENSG00000172869|msi1|FALSE|unique (ssRNA)
RNA: GGGAGUUCUACAGUCCGACGAUCCUGGGAGAGUACCAAAGUUGUGCCCCUUUCUAAAUUUGUACUAUUACGAAGUGUGGACCUAGUUUCUUCUGUAGAUGGCUCCCCACCUUUUCCUGUUUCUUUAUCGUGGGUCCGGGAUGGCAACAGAGGAUUGAGCAUCA
B16: chr3:194644572:194644746:-|CDS|ENSG00000041802|control|control|control (ssRNA)
RNA: GGGAGUUCUACAGUCCGACGAUCGCAUCAACACCAGCGACUCCUAGAGAACAAAAUGAACAGUGAUGAAAUAAAAAUGCAGCUAGGCAGAAAUAAAAAAGCAAAGCAGAUUGAAAAUAUCGUUGACAAAACUUUUUUCCAUCACAACAGAGGAUUGAGCAUCA
B17: chr12:104012598:104012803:-|three_prime_utr|ENSG00000120820|control|control|control (ssRNA)
RNA: GGGAGUUCUACAGUCCGACGAUCCUGAGAUGCUGGAAGCUAAGACGUUAACAAACGGACUCUGGAGGACACAAUUCAGUCCAUAGCAGUAUCUACACCUCAAUAAACUGUUCUAAAAGAGAGAGAGAGAGAAGGAAGUCACAUCAACAGAGGAUUGAGCAUCA
B18: chr6:144852070:144852171:+|3pUTR|ENSG00000152818|unk|FALSE|unique (ssRNA)
RNA: GGGAGUUCUACAGUCCGACGAUCAAGUCCUUAAUAGUUCUUGAAACUCCUAGUUGUUUUCUUGUUGAAAGCAGACACACAUUUAGUGCACGGCUUAUUUUACCUUUCGGGUGAAAGAUCAGAUGUUUUUAUACCCUUCACUUGCAACAGAGGAUUGAGCAUCA
B19: chr8:58583617:58583718:-|3pUTR|ENSG00000035681|unk|FALSE|unique (ssRNA)
RNA: GGGAGUUCUACAGUCCGACGAUCGUUUUGUCUUCCUAAUCUAUCACAAUUGCCACCCAUCGGGUUUUGGGUGUGUGUUUUCAUAGCGUGGUUACUUUCUAUAAUGCUGUACCCAGAUUCUAAGAACCUGGAGAAGGAUUAGCACAACAGAGGAUUGAGCAUCA
B20: chr21:43982464:43982545:+|3pUTR|ENSG00000160216|msi1_unk|FALSE|overlapping (ssRNA)
RNA: GGGAGUUCUACAGUCCGACGAUCCCCUGACGGUGGUAUCCAGUUAACUCAAAACCAACACACAGAGUGCAGGAAAAGACAAUUAGAAACUAUUUUUCUUAUUAACUGGUGACUAAUAUUAACAAAACUUGAGCCAAGAGUAAACAACAGAGGAUUGAGCAUCA
B21: chr15:32969305:32969406:-|CDS|ENSG00000248905|unk|total|mutant (ssRNA)
RNA: GGGAGUUCUACAGUCCGACGAUCCGAGCAUGCAAUGAUAACAGCGAGACCCGAAGAAACCAUUGAAAAUCUGAAACACGAGCCCGAACACAGAUGGCGAGGGGGUUGUGAAGAGAGGAAAGAUGUGUGCAUUUCCACCGAUGACAACAGAGGAUUGAGCAUCA
B22: chr7:83961326:83961382:-|CDS_3pUTR|ENSG00000075213|msi1_unk|total|mutant (ssRNA)
RNA: GGGAGUUCUACAGUCCGACGAUCAAACAGGAGGACCCACGAAUUUGAGAGGGCACCCAGGAGUGUCUGAGCUGCAUUACCUCCCGAAACCUCAAACAAGCCGAAACUUGCCCCGACAAUAACUGGAAAAACAAAUGCAAUAUACAACAGAGGAUUGAGCAUCA

Biological target: T1, UNK ZnF1-6 (called full-length)
Experiment: nsRBNS (natural sequence RNA bind-n-seq); RBNS binding buffer (assumed for nsRBNS): 25 mM Tris pH 7.5, 150 mM KCl, 3 mM MgCl2, 0.01% Triton X-100, 500 ug/ml BSA, 20 U/ml SUPERase-In, 4 C; UNK is unkempt and MSI1 is Musashi-1; names of the RNAs are library labels; protein concentration not given here; high values mean tight binding

Row | Binder | binding signal
1 | B1 | 0.359 enrichment R
2 | B2 | 0.908 enrichment R
3 | B3 | 0.534 enrichment R
4 | B4 | 0.577 enrichment R
5 | B5 | 0.334 enrichment R
6 | B6 | 0.659 enrichment R
7 | B7 | 0.81 enrichment R
8 | B8 | 0.366 enrichment R
9 | B9 | 0.658 enrichment R
10 | B10 | 0.414 enrichment R
11 | B11 | 0.536 enrichment R
12 | B12 | 0.716 enrichment R
13 | B13 | 1.16 enrichment R
14 | B14 | 0.661 enrichment R
15 | B15 | 1.06 enrichment R
16 | B16 | 0.393 enrichment R
17 | B17 | 0.823 enrichment R
18 | B18 | 0.969 enrichment R
19 | B19 | 0.381 enrichment R
20 | B20 | 0.851 enrichment R
21 | B21 | 0.672 enrichment R
22 | B22 | 0.585 enrichment R
